From PMC6133972
These are yes or no findings as the source states them, for the method shown. In cells and extracts the contact can be indirect. Some entries that bind do so weakly or less than the wild type. For some of these results: Tags and fused reporters may be left off the sequences shown.

Amino acid sequences for entries named in this document (tags omitted).
UniProt Q14790: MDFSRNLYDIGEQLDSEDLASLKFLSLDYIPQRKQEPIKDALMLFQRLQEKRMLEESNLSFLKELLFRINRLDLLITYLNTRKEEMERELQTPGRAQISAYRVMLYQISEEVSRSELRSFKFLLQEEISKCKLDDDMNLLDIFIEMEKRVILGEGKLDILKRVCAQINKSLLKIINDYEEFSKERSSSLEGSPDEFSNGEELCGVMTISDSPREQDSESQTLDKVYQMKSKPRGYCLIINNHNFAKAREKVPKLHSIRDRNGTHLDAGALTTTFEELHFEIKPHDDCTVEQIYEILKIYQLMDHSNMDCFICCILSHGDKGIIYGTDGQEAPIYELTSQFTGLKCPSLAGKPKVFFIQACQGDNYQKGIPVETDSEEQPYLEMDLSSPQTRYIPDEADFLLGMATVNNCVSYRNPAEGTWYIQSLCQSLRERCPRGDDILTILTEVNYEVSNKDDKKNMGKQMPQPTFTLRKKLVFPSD

B1: FADD (Fas-associated protein with death domain), endogenous in CCRF-CEM cells, Q13158 1-208 (protein)
chain: MDPFLVLLHSVSSSLSSSELTELKFLCLGRVGKRKLERVQSGLDLFSMLLEQNDLEPGHTELLRELLASLRRHDLLRRVDDFEAGAAAGAAPGEEDLCAAFNVICDNVGKDWRRLARQLKVSDTKIDSIEDRYPRNLTERVRESLRIWKNTEKENATVAHLVGALRSCQMNLVADLVQEVQQARDLQNRSGAMSPMSWNSDASTSEAS
B2: CERS6, endogenous in CCRF-CEM cells (enzyme, UniProt Q6ZMG9 1-384)
chain: MAGILAWFWNERFWLPHNVTWADLKNTEEATFPQAEDLYLAFPLAFCIFMVRLIFERFVAKPCAIALNIQANGPQIAPPNAILEKVFTAITKHPDEKRLEGLSKQLDWDVRSIQRWFRQRRNQEKPSTLTRFCESMWRFSFYLYVFTYGVRFLKKTPWLWNTRHCWYNYPYQPLTTDLHYYYILELSFYWSLMFSQFTDIKRKDFGIMFLHHLVSIFLITFSYVNNMARVGTLVLCLHDSADALLEAAKMANYAKFQKMCDLLFVMFAVVFITTRLGIFPLWVLNTTLFESWEIVGPYPSWWVFNLLLLLVQGLNCFWSYLIVKIACKAVSRGKVSKDDRSDIESSSDEEDSEPPGKNPHTATTTNGTSGTNGYLLTGSCSMDD

Tests used:
[1] = target: T1, CERS6 with C-terminal HTBH-DDK tag, overexpressed in CCRF-CEM cells (human) (UniProt Q6ZMG9); test: co-IP; two-step purification of CERS6-HTBH-DDK from 2000 µg lysate of CERS6 overexpressing CCRF-CEM cells: Ni-NTA resin overnight at 4 °C, elution with 350 mM imidazole, streptavidin affinity gel 2 h, AcTEV digestion 3 h; modified RIPA with Triton X-114; immunoblot of the final sample
T1 sequence: B2 chain

[2] = target: T2, human wild-type CERS6 tagged with mycDDK at COOH terminus (human) (UniProt Q6ZMG9); test: co-IP; HEK293FT cells transfected with CERS6-mycDDK and Fas-HA or Fas-HA mutants; 1000 µg lysate on anti-FLAG-M2 affinity gel overnight at 4 °C, elution with 3× FLAG peptide; immunoblot
T2 sequence: B2 chain

[3] = target: T2, human wild-type CERS6 tagged with mycDDK at COOH terminus (human); test: co-IP; co-immunoprecipitation of CERS6 and Fas in cytosolic (includes ER and other organelles) and plasma membrane fractions of transfected 293FT cells
[4] = target: T3, CD95/Fas death receptor, endogenous in CCRF-CEM cells (human (endogenous in CCRF-CEM)), P25445; test: co-IP; 1000 µg lysate of CCRF-CEM cells (non-targeted shRNA, CERS6 knockdown, CERS6 overexpressing) treated with ABT-737; 2 µg anti-Fas antibody overnight at 4 °C, Protein G Plus Agarose; normal IgG as control; immunoblot; conditions: remark: other sources report otherwise
T3 chain: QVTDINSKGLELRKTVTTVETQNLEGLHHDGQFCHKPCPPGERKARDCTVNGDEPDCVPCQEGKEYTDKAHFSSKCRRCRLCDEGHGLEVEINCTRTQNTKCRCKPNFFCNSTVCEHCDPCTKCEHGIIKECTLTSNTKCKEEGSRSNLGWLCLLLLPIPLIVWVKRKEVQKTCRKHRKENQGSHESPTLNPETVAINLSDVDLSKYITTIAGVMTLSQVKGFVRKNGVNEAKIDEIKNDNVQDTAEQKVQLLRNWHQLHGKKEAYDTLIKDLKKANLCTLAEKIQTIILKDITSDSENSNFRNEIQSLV

[5] = target: CD95/Fas death receptor, endogenous in CCRF-CEM cells (human (endogenous in CCRF-CEM)) (UniProt P25445); test: as above

Row | Molecule | binding [1] | binding [2] | also measured
1 | CD95/Fas death receptor, endogenous in CCRF-CEM cells (from UniProt P25445 26-335) | binds |  | 
2 | FAS-HA C199V (from UniProt P25445 26-335) (receptor) |  | binds | 
3 | caspase-8, endogenous in CCRF-CEM cells (from UniProt Q14790 1-479) (enzyme) | no binding |  | 
4 | FADD (Fas-associated protein with death domain), endogenous in CCRF-CEM cells (from UniProt Q13158 1-208) | no binding |  | 
5 | FAS-HA ∆174–314 (from UniProt P25445 26-335) (receptor) |  | no binding | 
6 | FAS-HA ∆174–236 and 315–335 (from UniProt P25445 26-335) (receptor) |  | binds | 
7 | FAS full-length tagged with HA (from UniProt P25445 26-335) (receptor) |  | binds | binding [3]: binds
8 | B1 |  |  | binding [4]: binds
9 | B2 |  |  | binding [5]: binds
